# Experimental data as given in paper PMC5892938.
# Some of the results follow. At the low end of the ranking the order means little.
# Target: GST-SBP-SLBP (stem-loop binding protein) (UniProt Q14493)
# Assay: targeted RNA Bind-n-Seq;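 also: DESeq read counts versus GST-SBP nonspecific binding control pulldown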
# Conditions: RBNS binding buffer: 25 mM Tris pH 7.5, 150 mM KCl, 3 mM MgCl2, 0.1% Tween, 0.5 mg/mL BSA, 1 mM DTT; 27 nM protein, 750 pM RNA pool; temperature not stated; high values mean tight binding
row,Sequence,binding signal (log2 fold change)
1,GGUCACGUCUCAAUCAACUCUAUCCCCAGGGAAAGCCCUGGUAAACUCAACAGCUCGCAGUCAAG,-0.0617
2,GGUCACGUCUCAAUCAACUCCAUAGAGGGGGGGAAAACCCCUUUGCCCUCAAUUUCAACAGCUCGCAGUCAAG,0.426
3,GGUCACGUCUCAAUCAACUCUAUCCCAGGAGUUUACUCCUGCUUUUUCAACAGCUCGCAGUCAAG,-0.0743
4,GGUCACGUCUCAAUCAACUCAUUUCCCAGGGAAAUCCCUGGCUUAUUCAACAGCUCGCAGUCAAG,0.0292
5,GGUCACGUCUCAAUCAACUCAACUCCAGGAGUUUUCUCCUGUAAUGUCAACAGCUCGCAGUCAAG,0.0275
6,GGUCACGUCUCAAUCAACUCUUCUUCCAGGGAAACCCCUGGCGUAUUCAACAGCUCGCAGUCAAG,0.0792
7,GGUCACGUCUCAAUCAACUCUAAAGAGGGGGGGAAAACCCCUUUGCCCUCAUUUUCAACAGCUCGCAGUCAAG,-0.789
8,GGUCACGUCUCAAUCAACUCUAGUCCAGGAGUUUUCUCCUGUUUAUUCAACAGCUCGCAGUCAAG,0.0691
9,GGUCACGUCUCAAUCAACUCUCAAGAGGGGGGGAAAACCCCUUUACCCUCAAUUUCAACAGCUCGCAGUCAAG,-0.102
10,GGUCACGUCUCAAUCAACUCAUUCCCAGGAGUUUACUCCUGUAAUUUCAACAGCUCGCAGUCAAG,0.331
11,GGUCACGUCUCAAUCAACUCAGUUCCAGGAGUUUUCUCCUGCUUAUUCAACAGCUCGCAGUCAAG,-0.0573
12,GGUCACGUCUCAAUCAACUCAGUCUCCAGGGAAAGCCCUGGCAUAUUCAACAGCUCGCAGUCAAG,-0.188
13,GGUCACGUCUCAAUCAACUCUAGUCCCAGGGAAAUCCCUGGCAAUCUCAACAGCUCGCAGUCAAG,-0.0203
14,GGUCACGUCUCAAUCAACUCUAUUUCAGGAGUUUUCUCCUGCAAACUCAACAGCUCGCAGUCAAG,0.0732
15,GGUCACGUCUCAAUCAACUCUAUUUCCAGGGAAACCCCUGGCUAUCUCAACAGCUCGCAGUCAAG,0.0945
16,GGUCACGUCUCAAUCAACUCAUCCCCAGGAGUUUACUCCUGUUUUUUCAACAGCUCGCAGUCAAG,0.0173
17,GGUCACGUCUCAAUCAACUCAACUUCCAGGGAAAUCCCUGGUUUAUUCAACAGCUCGCAGUCAAG,-0.0939
18,GGUCACGUCUCAAUCAACUCAAUCGAGGGGGGGAAAACCCCUUUACCCUCACAAUCAACAGCUCGCAGUCAAG,0.157
19,GGUCACGUCUCAAUCAACUCACAAGAGGGGGGGAAAACCCCUUUGCCCUCGUAAUCAACAGCUCGCAGUCAAG,-0.318
20,GGUCACGUCUCAAUCAACUCAAUCCCAGGAGUUUUCUCCUGCUAAGUCAACAGCUCGCAGUCAAG,0.206
21,GGUCACGUCUCAAUCAACUCAUUAGAGGGGGGGAAAACCCCUUUACCCUCAAUUUCAACAGCUCGCAGUCAAG,0.0094
22,GGUCACGUCUCAAUCAACUCUCCGGAGGGGGGGAAAACCCCUUUACCCUCAUCUUCAACAGCUCGCAGUCAAG,-0.0595
23,GGUCACGUCUCAAUCAACUCAUCUUCAGGAGUUUACUCCUGCUUUUUCAACAGCUCGCAGUCAAG,0.242
24,GGUCACGUCUCAAUCAACUCUCUAGAGGGGGGGAAAACCCCUUUACCCUCAAUGUCAACAGCUCGCAGUCAAG,0.0174

row,Sequence,binding signal (log2 fold change)
1,GGUCACGUCUCAAUCAACUCUUUCUCCAGGGAAAUCCCUGGCAAUUUCAACAGCUCGCAGUCAAG,0.055
2,GGUCACGUCUCAAUCAACUCAUUAGAGGGGGGGAAAACCCCUUUGCCCUCCGUAUCAACAGCUCGCAGUCAAG,-0.113
3,GGUCACGUCUCAAUCAACUCAUCGCCAGGAGUUUACUCCUGUUUUCUCAACAGCUCGCAGUCAAG,-0.0646
4,GGUCACGUCUCAAUCAACUCCUACGAGGGGGGGAAAACCCCUUUACCCUCCAAAUCAACAGCUCGCAGUCAAG,0.178
5,GGUCACGUCUCAAUCAACUCUUCCUCCAGGGAAACCCCUGGUAAUUUCAACAGCUCGCAGUCAAG,-0.0419
6,GGUCACGUCUCAAUCAACUCUAAAGAGGGGGGGAAAACCCCUUUACCCUCACCAUCAACAGCUCGCAGUCAAG,-0.193
7,GGUCACGUCUCAAUCAACUCAUUUCCCAGGGAAACCCCUGGUUAUUUCAACAGCUCGCAGUCAAG,0.00328
8,GGUCACGUCUCAAUCAACUCAAUAGAGGGGGGGAAAACCCCUUUACCCUCACUAUCAACAGCUCGCAGUCAAG,-0.218
9,GGUCACGUCUCAAUCAACUCAUUUUCAGGAGUUUCCUCCUGCAUAUUCAACAGCUCGCAGUCAAG,0.0879
10,GGUCACGUCUCAAUCAACUCUUUCCCCAGGGAAAACCCUGGUUUAUUCAACAGCUCGCAGUCAAG,-0.221
11,GGUCACGUCUCAAUCAACUCUUCCCCCAGGGAAAACCCUGGCAUUUUCAACAGCUCGCAGUCAAG,0.0691
12,GGUCACGUCUCAAUCAACUCAAUUUCCAGGGAAAACCCUGGCUUACUCAACAGCUCGCAGUCAAG,0.0684
13,GGUCACGUCUCAAUCAACUCUUCGUCCAGGGAAAACCCUGGCAUUUUCAACAGCUCGCAGUCAAG,0.00161
14,GGUCACGUCUCAAUCAACUCAUUUCCCAGGGAAAACCCUGGCUAUCUCAACAGCUCGCAGUCAAG,0.0963
15,GGUCACGUCUCAAUCAACUCAACUCCAGGAGUUUACUCCUGCAAAUUCAACAGCUCGCAGUCAAG,-0.0675
16,GGUCACGUCUCAAUCAACUCUUUCUCCAGGGAAAGCCCUGGCAUACUCAACAGCUCGCAGUCAAG,-0.0962
17,GGUCACGUCUCAAUCAACUCAAUCUCCAGGGAAACCCCUGGCUUACUCAACAGCUCGCAGUCAAG,0.244
18,GGUCACGUCUCAAUCAACUCAUCUUCAGGAGUUUACUCCUGUAUUCUCAACAGCUCGCAGUCAAG,0.13
19,GGUCACGUCUCAAUCAACUCUUCCCCCAGGGAAAGCCCUGGUUUUUUCAACAGCUCGCAGUCAAG,-0.2
20,GGUCACGUCUCAAUCAACUCAUUUCCCAGGGAAAGCCCUGGCUUUCUCAACAGCUCGCAGUCAAG,0.0523
21,GGUCACGUCUCAAUCAACUCUUCUUCAGGAGUUUUCUCCUGUAAUCUCAACAGCUCGCAGUCAAG,0.12
22,GGUCACGUCUCAAUCAACUCUUCGUCCAGGGAAAGCCCUGGUUUUUUCAACAGCUCGCAGUCAAG,-0.279
23,GGUCACGUCUCAAUCAACUCAAUUCCAGGAGUUUGCUCCUGUAUUUUCAACAGCUCGCAGUCAAG,-0.181
